# From paper PMC6919601, “Identification of Plasmodium dipeptidyl aminopeptidase allosteric inhibitors by high throughput screening” (PLoS ONE, 2019)
# Several values for one entry are separate records, joined by “and”; a condition that tells them apart may be missing. Identical values can stand only once. Screen size: about 110,000 compounds; about 230 (0.21%) showed an effect of 50% or more. Some of the results follow.
# Biological target: DPAP1 (Plasmodium falciparum, UniProt Q8IIJ9)
# Experiment: primary screen, percent inhibition; read by cleavage of a fluorogenic dipeptide substrate; higher = more effect of the substance
# Set-up: species or system P. falciparum D10 trophozoite lysates; single well
# 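Note: 30 min substrate incubation versus DMSO and 10 µM JCP410 controls.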
# Chain of DPAP1 (Q8IIJ9 whole entry, looked up): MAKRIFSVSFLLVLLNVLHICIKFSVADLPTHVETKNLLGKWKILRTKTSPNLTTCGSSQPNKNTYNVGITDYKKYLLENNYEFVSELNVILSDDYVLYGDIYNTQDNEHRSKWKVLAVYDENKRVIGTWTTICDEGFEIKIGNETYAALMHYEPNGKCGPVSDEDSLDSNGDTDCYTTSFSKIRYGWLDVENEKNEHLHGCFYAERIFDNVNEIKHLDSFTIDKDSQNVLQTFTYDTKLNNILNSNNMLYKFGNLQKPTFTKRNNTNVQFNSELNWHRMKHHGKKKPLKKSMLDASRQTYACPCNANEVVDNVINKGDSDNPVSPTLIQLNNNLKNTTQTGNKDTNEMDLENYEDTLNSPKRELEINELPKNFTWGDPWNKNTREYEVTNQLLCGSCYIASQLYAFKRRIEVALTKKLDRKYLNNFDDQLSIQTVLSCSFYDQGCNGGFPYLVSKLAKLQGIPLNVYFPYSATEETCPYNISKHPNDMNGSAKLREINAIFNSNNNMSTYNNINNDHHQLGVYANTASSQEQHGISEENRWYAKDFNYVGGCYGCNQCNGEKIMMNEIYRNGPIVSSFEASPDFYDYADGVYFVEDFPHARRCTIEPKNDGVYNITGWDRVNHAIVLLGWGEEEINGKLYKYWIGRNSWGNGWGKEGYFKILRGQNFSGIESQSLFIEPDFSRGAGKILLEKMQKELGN
row,SMILES,% Inhibition @ 10 uM
1,CCOC(=O)N1CCN(S(=O)(=O)c2ccc(C)cc2)C1,-3.69%
2,CN(C)c1nc(N)nc(Cn2nnc(-c3cccc(C(F)(F)F)c3)n2)n1,-2.19%
3,O=C(NCCCc1nc2ccccc2n1Cc1cccc2ccccc12)c1ccco1,-1.22%
4,CC(=O)Nc1ncnc2[nH]cnc12,1.12%
5,Cc1noc(NS(=O)(=O)c2ccc(NC(=O)c3c(-c4ccccc4Cl)noc3C)cc2)c1C,-5.6%
6,O=C(Cn1ncc2c3ccccc3n(Cc3ccccc3)c2c1=O)NCc1cccc(Cl)c1,0.137%
7,Cc1ccc(N2C(=O)c3oc4ccccc4c(=O)c3C2c2ccc(O)cc2)nc1 (centres unmarked),-5.51%
8,CN(C1CCCCC1)S(=O)(=O)c1ccc2nc(O)cc(C(=O)NCc3ccccc3)c2c1,3.89%
9,COc1ccc(C(=O)NCC2(c3ccc(OC)c(OC)c3)CCCC2)cc1OC,-10.2%
10,CCN1CCN(C(=O)Cn2c(=S)[nH]c3c([nH]c4ccc(OC)cc43)c2=O)CC1,-0.495%
11,CCn1nc(C)c(CCNC(=O)c2cc3c(=O)n(Cc4cccnc4)ccc3nc2C)c1C,-5.91%
12,CCOC(=O)c1cc2c(=O)n3ccccc3nc2n(C2CCCCC2)c1=N,0.0645%
13,CCOC(=O)c1cnc(SCc2nc(-c3ccccc3C)oc2C)nc1N,-2.3%
14,CC(=O)NS(=O)(=O)c1ccc(NC(=O)C2C3C=CC(C3)C2C(=O)O)cc1 (centres unmarked),-7.09%
15,CC(C)=CCCC12CCC(CO)(CO1)C(C)C2 (centres unmarked),5.06%
16,Cc1nn(Cc2nc(-c3ccc4c(c3)OCO4)no2)c(C)c1Br,2.62%
17,CCOC(=O)c1sc(NC(=O)c2ccccc2C)c(C(=O)OCC)c1C,-5.63%
18,CCN(CC)CCN(C(=O)c1ccco1)c1nc2cc3c(cc2s1)OCO3,2.25%
19,Cc1ccccc1CNC(=O)Cn1ncc2c(Cl)cccc21,-2.88%
20,CC(C)(C)c1ccc(C(=O)Nc2nonc2-c2nc3ccccc3[nH]2)cc1,0.596%
21,CCOc1ccc(-c2cc(C(=O)NCCc3sccc3C)[nH]n2)cc1,5.77%
22,O=C(O)CCCC(=O)Nc1ccc(OCc2nc3ccccc3s2)cc1,1.03%
23,COC(=O)c1sccc1NC(C)=O,39.4%
24,O=C(O)c1c2c(nc3ccccc13)CCCC2,1.7%
25,CCOC(=O)c1c(S(=O)(=O)N(C)Cc2ccccc2)c(C)n(C)c1C,-4.99%

row,SMILES,% Inhibition @ 10 uM
1,COc1cc(OC)cc(C2C(C#N)=C(N)Oc3[nH]nc(-c4cccnc4)c32)c1 (centres unmarked),-0.994%
2,COc1ccc(OC)c(N(CC(=O)Nc2cccc(Br)c2)S(C)(=O)=O)c1,-1.43%
3,CC1(C)CC(NS(=O)(=O)c2ccc3nc(O)sc3c2)CC(C)(C)N1,-1.24%
4,Cc1cc(-c2ccc(NC(=O)CCC(=O)O)c(C)c2)ccc1NC(=O)CCC(=O)O,-1.29%
5,Clc1ccc(-c2nn3c(C4COc5ccccc5O4)nnc3s2)cc1 (centres unmarked),53.7%
6,COc1cc(NC(C)CCCN)c2ncccc2c1Oc1ccccc1 (centres unmarked),5.44%
7,CSc1[nH]c(-c2ccccc2)nc1S(=O)(=O)c1ccccc1,19.3%
8,Cc1ccc(-c2c(C(=O)O)n(CC(C)C)c(=O)c3ccccc23)cc1C,5.13%
9,CC(C)NC(=O)N1CC(c2ccccc2)C(c2ccc(Cl)cc2)=N1 (centres unmarked),-4.15%
10,CCOc1ccc(N(CC(=O)NC)S(=O)(=O)c2ccc(C)cc2)cc1,3.06%
11,CC1=CC(=O)C2(C)C3CCC4CC(=O)CCC4(C)C3=CCC2S1(=O)=O (centres unmarked),-1.69%
12,CC(C)CC(C(=O)NCC#N)c1cccc(-c2ccc(-c3csc(N)n3)cc2)c1 (centres unmarked),0.173%
13,COc1cc(CNc2ccc(F)c(Cl)c2)cc(OC)c1,2.1%
14,COc1ccc(C(=O)[C@H]2[C@H](c3ccc(SC)cc3)C(C#N)(C#N)[C@@H]3c4ccccc4C=CN32)cc1,-0.597%
15,CC1CCN(c2nc3c(-c4cccc(C(F)(F)F)c4)nnn3c3ccccc23)CC1,-8.42%
16,O=C(c1cc2c(O)nc3ccccc3c2s1)N1CCN(Cc2ccc3c(c2)OCO3)CC1,1.23%
17,O=C(O)c1cnccc1C(=O)NCCc1ccccc1,-2.67%
18,COc1ccc(S(=O)(=O)Nc2cc(C)ccc2OC)cc1,-4.67%
19,Cc1ccc(OCCCn2nnc3sc4c(c3c2=O)CCC(C)C4)cc1 (centres unmarked),4%
20,CCCN1CCN(C(=O)CS(=O)(=O)Cc2nc(-c3cccc(OC)c3)oc2C)CC1,-0.138%
21,O=C1c2[nH]nc(-c3ccccc3O)c2C(c2cccc(O)c2)N1CC1CCCO1 (centres unmarked),-3.12%
22,CCN1C(=O)NC(c2ccccc2C(F)(F)F)C(C(=O)OC)=C1C (centres unmarked),4.32%
23,CCOC(=O)c1nc2ccccc2nc1C,4.21%
24,O=C(CSc1nc2cccnc2[nH]1)NCCc1nc2ccccc2[nH]1,4.79%
25,O=C(Nc1ccc(NC(=O)c2ccco2)c(Cl)c1)c1ccco1,4.33%

row,SMILES,% Inhibition @ 10 uM
1,CC(=O)N1CCC(N(Cc2ccco2)C(=O)NC2CCCC2)CC1,5.62%
2,Cc1ccc(CNC(=O)c2cc3c(s2)CN(Cc2ccccc2)C3)cc1,-5.8%
3,Cc1cc(-c2ccccc2)nn1-c1nc2ccccc2s1,9.1%
4,Nc1nc2c3ccccc3nc(Cc3ccccc3)n2n1,1.63%
5,O=C(NC1CC1)C1CCN(C(=O)c2ccc(Br)cc2)CC1,-0.999%
6,CCc1cc2c(C)cc(=O)oc2cc1O,-0.597%
7,CCOc1ccccc1N1CCN(Cc2ccc3ccccc3c2)CC1,3.16%
8,Cc1ccc2nc(O)c(CN(C(C)C)S(=O)(=O)c3ccccc3)cc2c1,-2.4%
9,COC(=O)c1ccc(Cn2c(S(=O)(=O)Cc3ccccc3)nc3ccccc32)cc1,-0.0108%
10,NS(=O)(=O)c1ccc(CCNC(=O)CCCn2ncn3c(cc4occc43)c2=O)cc1,4.55%
11,Cc1ccc(OCc2nc(C#N)c(NCCCN(C)C)o2)cc1,0.778%
12,CCc1ccc(-c2cc3c(=O)n(CC(=O)NCCOC)nc(C)n3n2)cc1,0.623%
13,Cc1cc(C(=O)NCC2CCCO2)c2c(C)nn(-c3ccccc3)c2n1 (centres unmarked),3.75%
14,CCOc1ccc(N2C(=O)C3C(C(C)=O)=NN(c4ccccc4Cl)C3C2=O)cc1 (centres unmarked),-0.0619%
15,Cc1cc(C)cc(NC(=O)c2cc3c(=O)n4cccc(C)c4nc3n2C)c1,0.331%
16,Cc1cc(O)nc(SCCc2ccccc2)n1,-5.69%
17,O=C1Nc2c(Cl)cc(Cl)cc2C1=O,2.51%
18,Nc1c(-c2nc(-c3ccncc3)no2)nnn1-c1ccc(F)cc1,1.66%
19,Cn1ccc(CNC(=O)COc2ccc(Br)cc2)n1,-0.759% and 0.214%
20,Cc1ccccc1S(=O)(=O)Cc1ccc(C(=O)N2CCOCC2)o1,-6.89%
21,O=C(CN1C(=O)S/C(=C/c2ccc(O)cc2)C1=O)Nc1ccccc1,1.15%
22,Cc1cc(Cl)cc2c1NC(c1ccc(Br)cc1)=NN=C2c1ccccc1,6.5%
23,CCN(CC)CCCNC(=S)N1CCN(c2ccc3nnc(-c4ccc(F)cc4)n3n2)CC1,-1.37%
24,COc1cc(C=C2C(=O)N(C)C(=O)N(C)C2=O)ccc1OCC(=O)O,0.343%
25,CC1=CC2=NC(=O)/C(=C\c3ccc(-c4ccccc4Cl)o3)C(=N)N2O1,-1.65%

row,SMILES,% Inhibition @ 10 uM
1,O=C(NCc1ccccc1Cl)c1c(-n2cccc2)sc2c1CCC2,-3.47%
2,N#Cc1cc2c(nc1SCC(=O)c1ccc(Cl)cc1)C1CCN2CC1,0.895%
3,Nc1ncc2c(n1)CC(c1ccco1)CC2=O (centres unmarked),4.55%
4,COc1ccc(C(C2=C(O)CC(C)(C)CC2=O)c2c(C)[nH]c3ccccc23)cc1 (centres unmarked),0.275%
5,O=C(COc1ccc([N+](=O)[O-])cc1)OCCOc1ccc([N+](=O)[O-])cc1,-0.0267%
6,CC(C)(C)c1nc2scc(-c3ccccc3)c2c(=O)o1,5.16%
7,O=C(CCn1ccc2cc(S(=O)(=O)N3CCCC3)ccc21)NCc1ccc(Cl)cc1,2.82%
8,COc1ccc(O)c(C2=NN3C(C2)c2cc(Br)ccc2OC3(C)C)c1 (centres unmarked),4.97%
9,Cc1ccc2c(cnn2C(=O)CCCC(=O)NCC2CCCO2)c1 (centres unmarked),0.386%
10,CCCCNC(=O)C1CCCN(S(=O)(=O)N2CCCCCC2)C1 (centres unmarked),1.16%
11,CS(=O)(=O)N(CC(=O)N1CCN(Cc2ccccc2)CC1)c1cc(Cl)cc(Cl)c1,-3.77%
12,COc1ccc(/C=C(/NC(=O)c2ccccc2)c2nc3ccccc3[nH]2)cc1OC,7.09%
13,CCCN1CCC(NC(C)c2ccc(F)cc2)CC1 (centres unmarked),-4.75%
14,CC1=CCC2C(=O)N(c3ccc4ccccc4n3)C(=O)C2C1 (centres unmarked),5.23%
15,Cc1nn(-c2ccc(F)cc2)c(-n2cccc2)c1C(=O)NC(C)(C)C,-0.571%
16,CCOC(=O)c1c(Nc2ccc(Cl)cc2)cc(C)nc1C,-10.2%
17,COc1ccc(S(=O)(=O)N2CCN(c3ccc(F)cc3)CC2)cc1OC,-10.6%
18,COc1cc(CN2CCN(c3ccccc3C)CC2)cc(OC)c1,1.9%
19,Cc1ccc(OCC(=O)N(Cc2nc(-c3ccccc3)no2)C(C)C)cc1C,1.62%
20,Cc1nc2nc(N3C(=O)c4ccccc4C3=O)nn2c(C)c1Cl,-3.08%
21,N#CC1=C(N)Oc2[nH]nc(C34CC5CC(CC(C5)C3)C4)c2C1c1ccco1 (centres unmarked),-6.37%
22,COc1ccc2nc(N3CCSCC3)cc(C)c2c1,-1.85%
23,Cn1c2c(c(=O)n(C)c1=O)CN(CCN1CCc3ccccc3C1)CN2,-2.88%
